{"source": "paper PMC12136788", "binders": {"B1": {"name": "chr11:46405157:46405158:+_ENSG00000110492_ENST00000395566|hu_hu|hu_hu_hu_mus_False|48_58 (ssRNA)", "RNA": "GGGAGUUCUACAGUCCGACGAUCCCCUCCCCACUUUGGGCACUUGGUGUGGGCGUGAGAGGACAGGCGUGAUUGACAAAGCUAACGAGCAGACAGAAGGCACUGGUGGGUUAUAUCUUGGGCCUGUGGGAGAGGAGGGCUCCGCAACAGAGGAUUGAGCAUCA"}, "B2": {"name": "chrX:71549400:71549401:+_ENSMUSG00000019087_ENSMUST00000019231|mus_hu|mus_mus_mus_hu_False|1_58 (ssRNA)", "RNA": "GGGAGUUCUACAGUCCGACGAUCGCAGUAGGAAGAGGGAAGCUCUUCAGUCCAGUGCGCUGCAGGGUGGGAAAGCACAACCUAGACCACCGUCCCACCCUCAACCCCCCCACUGGCACAGGGUCACACAAUCUGGGAAGUGAUCAACAGAGGAUUGAGCAUCA"}, "B3": {"name": "chr5:37680062:37680063:+_ENSMUSG00000029121_ENSMUST00000031004|mus_hu|mus_mus_mus_hu_False|88_98 (ssRNA)", "RNA": "GGGAGUUCUACAGUCCGACGAUCUUUGGGUGUAGCUGGCACCUCGUACACAGGCCCGUCAUACAUGCCCCUGGAAACCCCUUGCAAUCCAAAAACCUUAUUCCUGAUUUUGACGCGCUGGUACAGGUGCUCCGGGAACGCCUUCAACAGAGGAUUGAGCAUCA"}, "B4": {"name": "100766234_100766354_1031_CDS_ENSMUSG00000004040_ENSMUST00000127638|mouse|control|control (ssRNA)", "RNA": "GGGAGUUCUACAGUCCGACGAUCGUCCAGGCAGAUGUUGGGAGGGCCUCCGAUGCACGCGAUCUGCUGCCGCCUCUUCCAGUCAGCCAGCUCUUCAUCAGUCAGUGUCUUCUGCACGUACUCCAUUGCUGACAAGAGCCCCGCCAACAGAGGAUUGAGCAUCA"}, "B5": {"name": "chr4:134901438:134901439:-_ENSMUSG00000028809_ENSMUST00000134854|mus_mus|motif|central (ssRNA)", "RNA": "GGGAGUUCUACAGUCCGACGAUCCUUCCGACUCCCUACUGCAACUCAACCACCUUGAGUUUAAUGUUAUAUCAUUUAUCGGAAUUGCAAAAGACGAACAAGCAAUAAUGAGUACACAACCACAAAAAAAGAAAAGAUUGUUUACAACAGAGGAUUGAGCAUCA"}, "B6": {"name": "chr12:35831226:35831227:+_ENSMUSG00000020590_ENSMUST00000048519|mus_mus|FALSE|FALSE (ssRNA)", "RNA": "GGGAGUUCUACAGUCCGACGAUCUCAGCAGAAGACAUAUAGCCUCUUUGUGUCUAUGUUCAUCUGUGCAACAAGUGCACUAAAUAGAAUAAUUUUAUUAACCAGAGAAUACUGUACUCUACUCAUCGGUUAAACACUCUACACCAACAGAGGAUUGAGCAUCA"}, "B7": {"name": "chr17:57763070:57763071:+_ENSG00000141367_ENST00000269122|hu_mus|FALSE|FALSE (ssRNA)", "RNA": "GGGAGUUCUACAGUCCGACGAUCGGCGAAAUCCAUGAUAUUAUGUCUCCAUGCGGUUUCCAGGACGACAUCUGGCCUUAAGAGAUCAUAACAGGUAAAGAGACAAGCUCCAAAGCAUUCUCUUUUUUCUUCCUGCAAAAACCACAACAGAGGAUUGAGCAUCA"}, "B8": {"name": "chr2:170668292:170668293:+_ENSG00000138385_ENST00000260956|hu_mus|FALSE|FALSE (ssRNA)", "RNA": "GGGAGUUCUACAGUCCGACGAUCACCUAAUUCGCUUUUCUUUUUAAAAGCUUCUGAAGACAAAAAGCAGCUUAAAAUCUAACUAAGGAAUAAAAACACUGCUUACUAAAUAAACUACUUGUCUCUAGCACCAUUUUCUCUUUUCAACAGAGGAUUGAGCAUCA"}, "B9": {"name": "chr11:87794976:87794977:-_ENSMUSG00000020483_ENSMUST00000020775|perfect_dup|motif|central (ssRNA)", "RNA": "GGGAGUUCUACAGUCCGACGAUCGCAACGCCGCCUGCUUGCCAUCGCUGCCGCCGCCACUGACACCUUCACCAUGGCCACCGGGCCUGACUUGAAGAGGAGGAUUGCAACUUGACCCAAGUAAAAAUAGAUGAAGUGCUUUGUCAACAGAGGAUUGAGCAUCA"}, "B10": {"name": "chr17:3197573:3197574:+_ENSMUSG00000046201_ENSMUST00000076734|mus_hu|motif|central (ssRNA)", "RNA": "GGGAGUUCUACAGUCCGACGAUCCCUCACAAGAUUCUCUCUUAUAUCUACAGGAGGUCUUCCAAAAUGAUCCCUACCAUCGGGUGGAGGCCGUCCAGGACCUUCUCUUGGAUCUAUAGGCCGCCCAACCACAUCUCUAACAUCCAACAGAGGAUUGAGCAUCA"}, "B11": {"name": "chr17:12908325:12908326:-_ENSG00000006744_ENST00000338034|hu_mus|FALSE|FALSE (ssRNA)", "RNA": "GGGAGUUCUACAGUCCGACGAUCCACCAGCGCCACAGGUGCAUCAGCCUCUGCCUGGUACCUUUUAAAGGUGUCGUUCUCACAGAUGGGCAGGAUGAAUCCUUCAUCAGGACACUCUACCACAAUGAAUACAAGACCAGGAUCCAACAGAGGAUUGAGCAUCA"}, "B12": {"name": "chr8:121872745:121872746:+_ENSMUSG00000031839_ENSMUST00000034300|mus_hu|motif|central (ssRNA)", "RNA": "GGGAGUUCUACAGUCCGACGAUCCUUUGUGGUGACAAUCAUAUGGAUCACCUUCCAGGUCAUCAGUAUUGGCCUCGGGGUUUAGCACUCCUGGCACUGCAUUUUUGAGUGGCCAGAGAUAAAGGUAUUAUCCCUGUCUUCUAUCAACAGAGGAUUGAGCAUCA"}, "B13": {"name": "chr2:131005039:131005040:-_ENSMUSG00000068267_ENSMUST00000089510|mus_mus|FALSE|FALSE (ssRNA)", "RNA": "GGGAGUUCUACAGUCCGACGAUCGUACCACAGGCUGGUCUCGGUGGCGCUGAACACGUCCUGCGAGGCGUAGCCCUCAGCUACCGACGGCGGCUGCUCCUCCCUCGUGUGCCAGCCGGGUGUGCUCCCACCGCUGCCCUCGGACAACAGAGGAUUGAGCAUCA"}, "B14": {"name": "49662626_49662861_1819_CDS_ENSMUSG00000028309_ENSMUST00000029989|mouse|control|control (ssRNA)", "RNA": "GGGAGUUCUACAGUCCGACGAUCGAGGGCACUGCCACUGCGCAGACGUGUCUUGUUCAGGUCAGACUGCGCCUCUCUCAGCUUCCGUUUAUACCUUAGGACUUCACCCUUCAGCUGGUGGUUAUGAUUCUGGAGGCUGCUAAUCAACAGAGGAUUGAGCAUCA"}}, "note": "Some of the results follow."}
{"molecular_target": "T1, UNK ZnF1-3 (human, UniProt Q9C0B0 31-174)", "T1 sequence": "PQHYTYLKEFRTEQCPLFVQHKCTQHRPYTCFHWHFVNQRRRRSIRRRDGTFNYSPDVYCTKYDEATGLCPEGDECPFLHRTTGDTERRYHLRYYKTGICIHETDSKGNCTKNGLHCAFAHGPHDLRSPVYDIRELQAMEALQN", "assay": "nsRBNS (natural sequence RNA bind-n-seq); RBNS binding buffer (assumed for nsRBNS): 25 mM Tris pH 7.5, 150 mM KCl, 3 mM MgCl2, 0.01% Triton X-100, 500 ug/ml BSA, 20 U/ml SUPERase-In, 4 C; UNK is unkempt and MSI1 is Musashi-1; names of the RNAs are library labels; protein concentration not given here; high values mean tight binding", "units": {"binding signal": "enrichment R"}}
{"binder": "B1", "binding signal": 2.85}
{"binder": "B2", "binding signal": 1.02}
{"binder": "B3", "binding signal": 0.697}
{"binder": "B4", "binding signal": 0.649}
{"binder": "B5", "binding signal": 1.46}
{"binder": "B6", "binding signal": 0.529}
{"binder": "B7", "binding signal": 0.535}
{"binder": "B8", "binding signal": 1.21}
{"binder": "B9", "binding signal": 1.82}
{"binder": "B10", "binding signal": 0.852}
{"binder": "B11", "binding signal": 0.935}
{"binder": "B12", "binding signal": 0.465}
{"binder": "B13", "binding signal": 0.748}
{"binder": "B14", "binding signal": 0.652}
